According to the antibiotic and cytotoxicity screens of Wong et al. (2023):
Some of the results follow.

Key:
[1] = tested on: HSkMC (human skeletal muscle cells); assay: cytotoxicity call (relative viability < 0.9); conditions: 10 µM
[2] = tested on: HepG2; assay: cytotoxicity call (relative viability < 0.9); conditions: 10 µM
[3] = tested on: S. aureus RN4220; assay: growth inhibition call (relative growth <= 0.2); conditions: 50 µM

COc1cccc(C#Cc2ccc3c(c2)O[C@H](CN(C)C(C)=O)[C@H](C)CN([C@@H](C)CO)S3(=O)=O)c1
inactive: cytotoxicity call [1] | cytotoxicity call [2] | growth inhibition call [3]

C[C@H]1CN([C@@H](C)CO)C(=O)c2cccc(NC(=O)Nc3cccc4ccccc34)c2O[C@@H]1CN(C)S(=O)(=O)c1ccc(Cl)cc1
inactive: cytotoxicity call [1] | cytotoxicity call [2] | growth inhibition call [3]

C[C@@H]1CN([C@H](C)CO)C(=O)c2cc(NC(=O)NC3CCCCC3)ccc2O[C@H]1CN(C)Cc1ccc(Cl)c(Cl)c1
inactive: cytotoxicity call [1] | cytotoxicity call [2] | growth inhibition call [3]

COCC#Cc1ccc2c(c1)O[C@@H](CN(C)C(=O)Nc1ccc(OC)cc1)[C@H](C)CN([C@@H](C)CO)S2(=O)=O
inactive: cytotoxicity call [1] | cytotoxicity call [2] | growth inhibition call [3]

NCCCC(O)(P(=O)(O)O)P(=O)(O)O.O.O.O.[Na+]
inactive: cytotoxicity call [1] | cytotoxicity call [2] | growth inhibition call [3]

COc1ccc(CN(C)C[C@@H]2Oc3ccc(NC(=O)CCN4CCOCC4)cc3CC(=O)N([C@@H](C)CO)C[C@H]2C)cc1
inactive: cytotoxicity call [1] | cytotoxicity call [2] | growth inhibition call [3]

C[C@@H]1CN([C@H](C)CO)C(=O)c2cc(-c3cccc(C(=O)N(C)C)c3)cnc2O[C@H]1CN(C)S(=O)(=O)c1ccccc1
inactive: cytotoxicity call [1] | cytotoxicity call [2] | growth inhibition call [3]

Cc1ccc(S(=O)(=O)Nc2ccc3c(c2)C(=O)N([C@H](C)CO)C[C@H](C)[C@@H](CN(C)C(=O)Nc2cccc4ccccc24)OCCCC[C@@H](C)O3)cc1
inactive: cytotoxicity call [1] | cytotoxicity call [2] | growth inhibition call [3]

COCCNC(=O)C[C@H]1C[C@@H]2c3cc(NC(=O)CN(C)C)ccc3O[C@@H]2[C@@H](CO)O1
inactive: cytotoxicity call [1] | cytotoxicity call [2] | growth inhibition call [3]
